# Some of the results follow.
# B1: chr2:205797254:205797461:+|3pUTR|ENSG00000118257|msi1|FALSE|unique (ssRNA)
# RNA: GGGAGUUCUACAGUCCGACGAUCUCACCCUCCCAUGAUGCGCAGUGUUCAGAAAGCUGGUAAGUCCUAGGGAUUUCCAGAAGUAGCCUGCAGAAGAAGGUAAGUUUGAAAGCCACUCCAGGGGUCCUGAUGCUGUCAUGCUCACAACAGAGGAUUGAGCAUCA
# B2: chr1:108222463:108223704:-|three_prime_utr|ENSG00000196427|control|control|control (ssRNA)
# RNA: GGGAGUUCUACAGUCCGACGAUCACUAUGCUCCUUUGAUUUGAGAAGCCACAUUCCAUCCCCCUCCAAUUGUGAUCAAUACCUAGGGAGACCAAUGCCCAGAUGGACAAAUAGCAUUGACCGGCGUUAGCCCUGUUUCUCAAUCAACAGAGGAUUGAGCAUCA
# B3: ENSG00000198589:be:win_351|CDS|ENSG00000198589|bound_else_gene|NA|bound_elsewhere_windowed (ssRNA)
# RNA: GGGAGUUCUACAGUCCGACGAUCUCUGAAGAAAAGCAUACGGAAUCUUCAAGUCUGCACUGAAGUAGGCCUUGUUGAAAAAGUGCUUGGGAAAAUUGAAAAAGUUGACAAUAUGAUAGCAGAUCUUUUGGUUGACAUGUUGGGCAACAGAGGAUUGAGCAUCA
# B4: chr11:118254921:118255022:-|3pUTR|ENSG00000149573|unk|total|mutant (ssRNA)
# RNA: GGGAGUUCUACAGUCCGACGAUCACAGCCUCAUUAUUAAGGUCUUAUUUAAUUUCAGAGUGUAAAUUUUUUCAAGUGCUCAUCCGGUUUUAUAAACAAGAAGCUACAUUUUUGCCCUUAAGACACUACUUACAGUGUUAUGACCAACAGAGGAUUGAGCAUCA
# B5: chrX:101268252:101269192:-|three_prime_utr|ENSG00000102387|control|control|control (ssRNA)
# RNA: GGGAGUUCUACAGUCCGACGAUCGUUGAAUCAGUUAUAUUUAUCUGUACCUUCUUUGCUACUUAAAAUAUGCUCACAGUUUGUAGUCAUGUAGAAAAGGCCAGUAUAAAAAUGUAGUAGACUUAAAGACCCCACUCGACCAUGCAACAGAGGAUUGAGCAUCA
# B6: chr22:21445082:21445183:+|CDS|ENSG00000169635|msi1|FALSE|bound_elsewhere (ssRNA)
# RNA: GGGAGUUCUACAGUCCGACGAUCCCUGUGUGACGUCAUCAUCAUGGUGGAGAACUCCAUCUUCCGGGCCCACAAGAACGUCCUAGCCGCCAGCAGCAUCUAUUUCAAGUCCCUGGUCCUGCACGACAACCUCAUCAACCUGGACAACAGAGGAUUGAGCAUCA
# Biological target: MSI1 full-length (mouse, UniProt Q61474 1-362)
# Assay: nsRBNS (natural sequence RNA bind-n-seq); RBNS binding buffer (assumed for nsRBNS): 25 mM Tris pH 7.5, 150 mM KCl, 3 mM MgCl2, 0.01% Triton X-100, 500 ug/ml BSA, 20 U/ml SUPERase-In, 4 C; UNK is unkempt and MSI1 is Musashi-1; names of the RNAs are library labels; protein concentration not given here; high values mean tight binding
# Sequence of UniProt Q61474 (Q61474 whole entry): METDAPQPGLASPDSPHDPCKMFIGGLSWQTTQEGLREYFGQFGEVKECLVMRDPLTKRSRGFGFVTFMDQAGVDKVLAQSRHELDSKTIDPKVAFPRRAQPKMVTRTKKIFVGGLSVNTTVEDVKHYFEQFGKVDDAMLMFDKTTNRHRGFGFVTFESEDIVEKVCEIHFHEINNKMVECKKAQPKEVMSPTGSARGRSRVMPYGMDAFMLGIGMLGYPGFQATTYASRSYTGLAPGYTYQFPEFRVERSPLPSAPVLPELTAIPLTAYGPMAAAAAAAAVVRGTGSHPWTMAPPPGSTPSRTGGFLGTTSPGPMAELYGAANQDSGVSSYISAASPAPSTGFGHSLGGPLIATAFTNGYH
row,Binder,binding signal
1,B1,0.607 enrichment R
2,B2,0.521 enrichment R
3,B3,0.235 enrichment R
4,B4,0.983 enrichment R
5,B5,2.46 enrichment R
6,B6,0.576 enrichment R
